The results in this text go back to the supplement of paper PMC12217912.

B1: TEV protease; numbered along this chain (parent)
chain: MGESLFKGPRDYNPISSSICHLTNESDGHTTSLYGIGFGPFIITNKHLFRRNNGTLVVQSLHGVFKVKDTTTLQQHLVDGRDMIIIRMPKDFPPFPQKLKFREPQREERICLVTTNFQTKSMSSMVSDTSCTFPSGDGIFWKHWIQTKDGQCGSPLVSTRDGFIVGIHSASNFTNTNNYFTSVPKNFMELLTNQEAQQWVSGWRLNADSVLWGGHKVFMVKPEEPFQPVKEATQL

Some of the results follow. The full chains were built here from the parent and the listed change. Values near 0.05 are background.

This assay covers variants of B1. The assay can be described thus: raw area under fraction-flipped curve 0-4 h after induction (AUC4h, not background-subtracted), DNA-recorder readout of cleavage of the substrate (dimensionless); higher = more cleavage of the substrate by the protease variant. The settings on record: temperature: 34 °C; time window: 0-4 h after rhamnose induction. The protocol:
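In vivo DNA recorder in E. coli TOP10(DE3) ΔrhaA at 34 °C. Each TEVp single-site mutant (parent TEVp 0) is paired with a single-site variant of the 7-mer TEVs (canonical ENLYFQ|S). The substrate sits between flexible linkers in a Bxb1-sfGFP-TEVs-SsrA fusion, so cleavage stabilises Bxb1 and speeds flipping of a recombination array, read by NGS. The value is the raw area under the fraction-flipped curve over 0-4 h after rhamnose induction (AUC4h), with ≥20 reads per time point. It is not background-subtracted; inactive controls average about 0.047.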
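Note: Bxb1 expression induced with 0.2% (w/v) L-rhamnose at OD600 near 0.5, cultures sampled hourly, flipped fraction per protease–substrate barcode pair counted by paired-end Illumina sequencing.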

Take MGESLFKGPRDYNPISSSICHLTNESDGHTTSLYGIGFGPFIITNKHLFRRNNGTLVVQSLHGVFKVKDTTTLQQHLVDGRDMIIIRMPKDFPPFPIKLKFREPQREERICLVTTNFQTKSMSSMVSDTSCTFPSGDGIFWKHWIQTKDGQCGSPLVSTRDGFIVGIHSASNFTNTNNYFTSVPKNFMELLTNQEAQQWVSGWRLNADSVLWGGHKVFMVKPEEPFQPVKEATQL [Q97I]: the “area with substrate ENLYAQS” value amounted to 0.0707, the “area with substrate ENLYGQS” value was 0.0853, the “area with substrate ENLYKQS” value turned out to be 0.0559 and the “area with substrate ENLYMQS” value is 0.0578. Moreover, the “area with substrate ENLYNQS” value was 0.071, the “area with substrate ENLYPQS” value was determined as 0.0757, the “area with substrate ENLYQQS” value was found to be 0.0514 and the “area with substrate ENLYVQS” value was found to be 0.103.

With MGESLFKGPRDDNPISSSICHLTNESDGHTTSLYGIGFGPFIITNKHLFRRNNGTLVVQSLHGVFKVKDTTTLQQHLVDGRDMIIIRMPKDFPPFPQKLKFREPQREERICLVTTNFQTKSMSSMVSDTSCTFPSGDGIFWKHWIQTKDGQCGSPLVSTRDGFIVGIHSASNFTNTNNYFTSVPKNFMELLTNQEAQQWVSGWRLNADSVLWGGHKVFMVKPEEPFQPVKEATQL [Y12D], the “area with substrate ENLYAQS” value was 0.0688, the “area with substrate ENLYCQS” value was 0.104, the “area with substrate ENLYDQS” value came to 0.0644 and the “area with substrate ENLYEQS” value came to 0.071. Further, the “area with substrate ENLYGQS” value was determined as 0.0655, the “area with substrate ENLYHQS” value amounted to 0.0599, the “area with substrate ENLYIQS” value was determined as 0.155 and the “area with substrate ENLYKQS” value was 0.101. The “area with substrate ENLYMQS” value was 0.0804, the “area with substrate ENLYPQS” value was determined as 0.0794, the “area with substrate ENLYQQS” value came to 0.0798 and the “area with substrate ENLYRQS” value was determined as 0.0602. Besides, the “area with substrate ENLYTQS” value was 0.0823, the “area with substrate ENLYWQS” value came to 0.0844 and the “area with substrate ENLYYQS” value was 0.0498.

Consider MGESLFKGPRDYNPISSSICHLTNESDGHTTSLYGIGFGPFIITNKHLFRRNNGTLVVQSLHGVFKVKDTTTLQQHLVDGRDMIIIRMPKDFPPFPQKLKFREPQREERICLVTTNFQTKSMSSMVSDTSCTFPSGDGIFWKHWIQTKDGQCGSPLVSTRDGFIVGIHSASNFTNTNNLFTSVPKNFMELLTNQEAQQWVSGWRLNADSVLWGGHKVFMVKPEEPFQPVKEATQL [Y179L], for which the “area with substrate ENLYAQS” value was 0.0515, the “area with substrate ENLYDQS” value amounted to 0.0499, the “area with substrate ENLYHQS” value stood at 0.0612 and the “area with substrate ENLYKQS” value came out at 0.0622. In addition, the “area with substrate ENLYMQS” value turned out to be 0.0567, the “area with substrate ENLYNQS” value turned out to be 0.0616, the “area with substrate ENLYPQS” value came to 0.0484 and the “area with substrate ENLYRQS” value worked out at 0.0519. Further, the “area with substrate ENLYWQS” value was 0.0668.

As to MGESLFKGPRDYNSISSSICHLTNESDGHTTSLYGIGFGPFIITNKHLFRRNNGTLVVQSLHGVFKVKDTTTLQQHLVDGRDMIIIRMPKDFPPFPQKLKFREPQREERICLVTTNFQTKSMSSMVSDTSCTFPSGDGIFWKHWIQTKDGQCGSPLVSTRDGFIVGIHSASNFTNTNNYFTSVPKNFMELLTNQEAQQWVSGWRLNADSVLWGGHKVFMVKPEEPFQPVKEATQL [P14S], the “area with substrate ENLYAQS” value is 0.0788, the “area with substrate ENLYCQS” value worked out at 0.0915, the “area with substrate ENLYDQS” value came out at 0.072 and the “area with substrate ENLYEQS” value came to 0.0635. For the same variant, the “area with substrate ENLYGQS” value was 0.066, the “area with substrate ENLYHQS” value was found to be 0.0692, the “area with substrate ENLYIQS” value amounted to 0.157 and the “area with substrate ENLYKQS” value is 0.0796. Further, the “area with substrate ENLYLQS” value turned out to be 0.0809, the “area with substrate ENLYMQS” value stood at 0.0761, the “area with substrate ENLYNQS” value was 0.0824 and the “area with substrate ENLYPQS” value amounted to 0.0764. Besides, the “area with substrate ENLYQQS” value stood at 0.075, the “area with substrate ENLYRQS” value was 0.0655, the “area with substrate ENLYSQS” value worked out at 0.0779 and the “area with substrate ENLYTQS” value came out at 0.0722. For the same variant, the “area with substrate ENLYVQS” value was found to be 0.102 and the “area with substrate ENLYWQS” value was 0.0818.

Turning to MGESLFKGPRDYNPISSSICHLTNESDGHTTSLYGIGFGPFIITNKHLFRRNNGTLVVQSLHGVFKVKDTTTLQQHLVDGRDMIIIRMPKDFPPFPQKLKFREPQREERICLVQTNFQTKSMSSMVSDTSCTFPSGDGIFWKHWIQTKDGQCGSPLVSTRDGFIVGIHSASNFTNTNNYFTSVPKNFMELLTNQEAQQWVSGWRLNADSVLWGGHKVFMVKPEEPFQPVKEATQL [T114Q], the “area with substrate ENLYAQS” value was 0.0749, the “area with substrate ENLYCQS” value was 0.123, the “area with substrate ENLYDQS” value is 0.0645 and the “area with substrate ENLYEQS” value is 0.0661. The “area with substrate ENLYGQS” value is 0.0639, the “area with substrate ENLYIQS” value is 0.0706, the “area with substrate ENLYKQS” value was determined as 0.0493 and the “area with substrate ENLYLQS” value worked out at 0.0399. For the same variant, the “area with substrate ENLYNQS” value came to 0.0831, the “area with substrate ENLYPQS” value stood at 0.0709, the “area with substrate ENLYSQS” value was determined as 0.0565 and the “area with substrate ENLYVQS” value stood at 0.0512. The “area with substrate ENLYWQS” value was 0.081.

For the variant MGESLFKGPRDYNPISSSICHLTNESDGHTTSLYGIGFGPFIITNKHLFRRNNGTLVVQSLHGVFKVKDTTTLQQHLVDGRDMIIIRMPKDFPPFPQKLKFREPQREERICLVTTNFQTKSMSSMVSDTSCTFPSGDGIFWKHWIQTKDGQCGGPLVSTRDGFIVGIHSASNFTNTNNYFTSVPKNFMELLTNQEAQQWVSGWRLNADSVLWGGHKVFMVKPEEPFQPVKEATQL [S154G], the “area with substrate ENLYAQS” value is 0.102, the “area with substrate ENLYDQS” value is 0.0608, the “area with substrate ENLYEQS” value came to 0.0651 and the “area with substrate ENLYGQS” value was 0.0642. Also, the “area with substrate ENLYIQS” value amounted to 0.101, the “area with substrate ENLYKQS” value was determined as 0.0589, the “area with substrate ENLYNQS” value worked out at 0.0645 and the “area with substrate ENLYQQS” value turned out to be 0.0158. Also, the “area with substrate ENLYRQS” value came out at 0.0619, the “area with substrate ENLYVQS” value is 0.119, the “area with substrate ENLYWQS” value turned out to be 0.0752 and the “area with substrate ENLYYQS” value stood at 0.0601.

Take MGESLFKGPRDYNPISSSICHLTNESDGHTTSLYGIGFGPFIITNKHLFRRNNGTLVVQSLHGVFKVKDTTTLQQHLVDGRDMIIIRMPKDFPPFPQKLKFREPQREERICLVTTNFQTKSMSSMVSDTSCTFPSGDGIFWKHWIQTKDGQCGSPLVSTRDGFIVGIHSASNFTNTNNYFTSVPKNFMELLTNEEAQQWVSGWRLNADSVLWGGHKVFMVKPEEPFQPVKEATQL [Q194E]: the “area with substrate ENLYAQS” value is 0.0787, the “area with substrate ENLYDQS” value stood at 0.0536, the “area with substrate ENLYEQS” value was found to be 0.063 and the “area with substrate ENLYIQS” value is 0.125. Besides, the “area with substrate ENLYKQS” value amounted to 0.0451, the “area with substrate ENLYMQS” value came out at 0.113, the “area with substrate ENLYNQS” value stood at 0.0746 and the “area with substrate ENLYPQS” value was found to be 0.0634. Moreover, the “area with substrate ENLYRQS” value is 0.072, the “area with substrate ENLYTQS” value is 0.0955, the “area with substrate ENLYVQS” value is 0.176 and the “area with substrate ENLYWQS” value is 0.094. The “area with substrate ENLYYQS” value came out at 0.102.

As to MGESLFKGPRDYNPISSSICHLTNESDGHTTSLYGIGFGPFIITNKHLFRRNNGTLVVQSLHGVFKVKDTTTLQQHLVDGRDMIIIRMPKDFPPFPQKLKFREPQREERICLVTTNFQTKSMSSMVSDTSCTFPSGDGIFWKHWIQTKDGQCGSPLVSTRDGFWVGIHSASNFTNTNNYFTSVPKNFMELLTNQEAQQWVSGWRLNADSVLWGGHKVFMVKPEEPFQPVKEATQL [I164W], the “area with substrate ENLYAQS” value is 0.0466, the “area with substrate ENLYCQS” value turned out to be 0.0444, the “area with substrate ENLYEQS” value was found to be 0.0447 and the “area with substrate ENLYGQS” value stood at 0.0477. Moreover, the “area with substrate ENLYHQS” value came out at 0.0503, the “area with substrate ENLYKQS” value stood at 0.0595, the “area with substrate ENLYMQS” value was found to be 0.0527 and the “area with substrate ENLYNQS” value is 0.05. Besides, the “area with substrate ENLYPQS” value stood at 0.0565, the “area with substrate ENLYRQS” value came out at 0.0502 and the “area with substrate ENLYVQS” value amounted to 0.0629.

On to MGESLFKGPRDYNPISSSICHLTNESDGHTTSLYGIGFGPFIITNKHLFRRNNGTLVVQSLHGVFKVKDTTTLQQHLVDGRDMIIIRMPKDFPPFPQKLKFREPQREERICLVTTNFQTKSMSSMVSDTSCTFPSGDGIFWKHWIQTKDGQCGSPLVSTRDGFPVGIHSASNFTNTNNYFTSVPKNFMELLTNQEAQQWVSGWRLNADSVLWGGHKVFMVKPEEPFQPVKEATQL [I164P], for which the “area with substrate ENLYAQS” value was 0.066, the “area with substrate ENLYCQS” value came to 0.0294, the “area with substrate ENLYDQS” value was 0.0553 and the “area with substrate ENLYEQS” value was 0.0544. For the same variant, the “area with substrate ENLYGQS” value is 0.0665, the “area with substrate ENLYHQS” value is 0.0541, the “area with substrate ENLYIQS” value was 0.0309 and the “area with substrate ENLYKQS” value is 0.0494. Also, the “area with substrate ENLYMQS” value was 0.0513, the “area with substrate ENLYNQS” value was 0.0583, the “area with substrate ENLYPQS” value turned out to be 0.0508 and the “area with substrate ENLYRQS” value was found to be 0.0613. For the same variant, the “area with substrate ENLYSQS” value amounted to 0.0616, the “area with substrate ENLYTQS” value is 0.0616, the “area with substrate ENLYVQS” value was 0.0616 and the “area with substrate ENLYWQS” value is 0.049. Also, the “area with substrate ENLYYQS” value is 0.0556.

For the variant MGESLFKGPRDYNPISSSICHLTNQSDGHTTSLYGIGFGPFIITNKHLFRRNNGTLVVQSLHGVFKVKDTTTLQQHLVDGRDMIIIRMPKDFPPFPQKLKFREPQREERICLVTTNFQTKSMSSMVSDTSCTFPSGDGIFWKHWIQTKDGQCGSPLVSTRDGFIVGIHSASNFTNTNNYFTSVPKNFMELLTNQEAQQWVSGWRLNADSVLWGGHKVFMVKPEEPFQPVKEATQL [E25Q], the “area with substrate ENLYAQS” value turned out to be 0.0711, the “area with substrate ENLYDQS” value amounted to 0.0622, the “area with substrate ENLYEQS” value came out at 0.068 and the “area with substrate ENLYGQS” value came out at 0.066. Besides, the “area with substrate ENLYKQS” value amounted to 0.0219, the “area with substrate ENLYLQS” value was 0.0833, the “area with substrate ENLYMQS” value was determined as 0.0745 and the “area with substrate ENLYNQS” value amounted to 0.0758. The “area with substrate ENLYPQS” value was determined as 0.0644, the “area with substrate ENLYQQS” value worked out at 0.0722, the “area with substrate ENLYRQS” value was found to be 0.0556 and the “area with substrate ENLYVQS” value was 0.105. Further, the “area with substrate ENLYWQS” value turned out to be 0.0728 and the “area with substrate ENLYYQS” value was found to be 0.0695.
